# Reference: PubChem BioAssay AID1508642 (National Center for Advancing Translational Sciences (NCATS), 2021)
# Among all 43,000 compounds or so, about 200 (0.47%) were called active. Inconclusive results (about 12%) are left out. Calls come from the whole dose curve; as a rule, active = well fitted cell-killing curve with a large enough effect; inconclusive = small, poorly fitted or top-dose-only effect, or effect the other way; inactive = flat fitted curve, though single readings scatter. This is one part of the list.
# Test: Cell viability qHTS assay in S16 Pmp22-F2sN cells; note: nearly all actives have a fitted effect of over 65% in size
# Settings: S16 Pmp22-F2sN Schwann cells (luciferase reporters placed in the Pmp22 gene) viability, CellTiter-Glo, 24 h; series mostly up to 57.5 µM; activity change, negative = cytotoxicity: at the top concentration
# Summary of the method: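 Luminescence from CellTiter-Glo, read by CCD camera after a 15 min room-temperature incubation, served as the viability signal. Reporter Schwann cells (S16 Pmp22-F2sN) had been treated with pin-transferred compounds for 24 h at 37C.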
# % is set by controls: 0 for no effect and ±100 for the full control effect; potency is the fitted concentration of half-maximal effect.
Structure (SMILES),"activity change, negative = cytotoxicity",Potency
COc1ccccc1NC(=O)c1cc2c(-c3ccccc3)nn(-c3ccccc3)c2s1,inactive: 0.157%,–
CCc1ccccc1NC(=O)Cn1c(=O)n(C(C)C)c(=O)c2oc3ccccc3c21,inactive: 12.4%,–
COc1ccc(OCc2nc3ccccc3n2Cc2ccc(C(C)(C)C)cc2)cc1,inactive: -20.3%,–
Cc1noc(Cn2c(=O)c3ccccc3n(CC(=O)Nc3cc(Cl)ccc3C)c2=O)n1,inactive: -8.39%,–
CCOC(=O)c1[nH]c2ccccc2c1NC(=O)c1ccc(C)c(C)c1,inactive: -4.61%,–
O=C(CSc1n[nH]c(-c2ccccc2)n1)N1CCN(c2ccc(F)cc2)CC1,inactive: 6.27%,–
O=C(CCn1cnc2onc(-c3ccc(F)cc3)c2c1=O)Nc1cccc(C(F)(F)F)c1,inactive: -18.9%,–
CCc1ccccc1NC(=O)CCn1cccn1,inactive: -6.3%,–
Cc1ccc(CSc2nc3ccccc3c3nc(CCn4c(C)nc5ccccc54)nn23)cc1,inactive: 1.02%,–
CCOc1ccc(NC(=O)c2ccc3c(=O)n4c(nc3c2)CCCCC4)cc1,inactive: -3.17%,–
Cc1cc(C)cc(NC(=O)C(C)N2Cc3ccccc3C2=O)c1 (stereo not drawn),inactive: 11.9%,–
Cc1ccc(-n2c(=O)c3c(cnn3C)n(CC(=O)Nc3cccc(Cl)c3)c2=O)cc1,inactive: -6.74%,–
CCOc1ccccc1NC(=O)CN1C(=O)CC(c2ccc(C)c(C)c2)=Nc2ccccc21,inactive: -1.02%,–
Cc1ccc(CNC(=O)C2CCN(C(=O)N3CC(C)Oc4ccc(Cl)cc43)CC2)cc1 (stereo not drawn),inactive: -17.6%,–
Cc1ccc(-c2nnc3ccccc3c2C(=O)Nc2ccc(F)cc2)cc1,inactive: 17.2%,–
COc1ccc(C(C)=O)cc1CSc1nc(Nc2ccc(F)c(F)c2)c2ccccc2n1,inactive: -17.5%,–
O=C(O)c1cc(-c2ccccc2)nn1Cc1ccccc1,inactive: -1.26%,–
COc1ccccc1Nc1nn2c(=O)c3ccc(C(=O)NCCc4ccccc4)cc3nc2s1,–,active: 8.91 µM
Cc1ccc(N2CCN(c3nc4ccc(C(=O)c5ccccc5)cc4n4cnnc34)CC2)c(C)c1,inactive: -2.32%,–
COc1ccc(C)cc1NC(=O)N(C(C)C)C1CCN(C(C)=O)CC1,inactive: -1.14%,–
CC(=O)Nc1ccc(NC(=O)c2ccc3c(c2)CCN3S(=O)(=O)c2ccc(C)cc2)cc1,inactive: 4.74%,–
Cc1ccn2c(Nc3ccccc3)c(-c3c[nH]c4ccccc34)nc2c1,inactive: -1.8%,–
Cc1cc(C)cc(NC(=O)C(=O)NCCc2sc(-c3cccc(F)c3)nc2C)c1,inactive: 9.09%,–
CCCCCn1c(CCCNC(=O)c2ccccc2OC)nc2ccccc21,inactive: -29.8%,–
O=C(NCc1ccccc1Cl)C1=Cc2cc(Br)ccc2OC1,inactive: 13%,–
Cc1ccccc1NC(=O)CSc1ccc(-c2ccccn2)nn1,inactive: -6.55%,–
COc1ccccc1-c1nn(CCC(=O)Nc2ccc(C)cc2)c2nc(C)cc(C)c12,inactive: 13.9%,–
CCN1CCN(CCCNC(=O)Cn2nc(C)n3c(cc4c(OC)cccc43)c2=O)CC1,inactive: 14.6%,–
